# Results reported in paper PMC4336329 (PLoS ONE, 2015).
# In all, about 310,000 compounds went through this assay and about 14,000 (4.5%) showed an effect of 50% or more. Effects have a minus sign here. The list shows a part of the results.
# Molecular target: human ether-à-go-go-related gene (hERG) potassium channel (human, UniProt Q12809)
# Test: primary screen, population patch clamp on CHO cells stably expressing hERG
# 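Further: peak tail current of the secondary pulse compared with the same well before compound.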
# Sequence of human ether-à-go-go-related gene (hERG) potassium channel (Q12809 whole entry, looked up): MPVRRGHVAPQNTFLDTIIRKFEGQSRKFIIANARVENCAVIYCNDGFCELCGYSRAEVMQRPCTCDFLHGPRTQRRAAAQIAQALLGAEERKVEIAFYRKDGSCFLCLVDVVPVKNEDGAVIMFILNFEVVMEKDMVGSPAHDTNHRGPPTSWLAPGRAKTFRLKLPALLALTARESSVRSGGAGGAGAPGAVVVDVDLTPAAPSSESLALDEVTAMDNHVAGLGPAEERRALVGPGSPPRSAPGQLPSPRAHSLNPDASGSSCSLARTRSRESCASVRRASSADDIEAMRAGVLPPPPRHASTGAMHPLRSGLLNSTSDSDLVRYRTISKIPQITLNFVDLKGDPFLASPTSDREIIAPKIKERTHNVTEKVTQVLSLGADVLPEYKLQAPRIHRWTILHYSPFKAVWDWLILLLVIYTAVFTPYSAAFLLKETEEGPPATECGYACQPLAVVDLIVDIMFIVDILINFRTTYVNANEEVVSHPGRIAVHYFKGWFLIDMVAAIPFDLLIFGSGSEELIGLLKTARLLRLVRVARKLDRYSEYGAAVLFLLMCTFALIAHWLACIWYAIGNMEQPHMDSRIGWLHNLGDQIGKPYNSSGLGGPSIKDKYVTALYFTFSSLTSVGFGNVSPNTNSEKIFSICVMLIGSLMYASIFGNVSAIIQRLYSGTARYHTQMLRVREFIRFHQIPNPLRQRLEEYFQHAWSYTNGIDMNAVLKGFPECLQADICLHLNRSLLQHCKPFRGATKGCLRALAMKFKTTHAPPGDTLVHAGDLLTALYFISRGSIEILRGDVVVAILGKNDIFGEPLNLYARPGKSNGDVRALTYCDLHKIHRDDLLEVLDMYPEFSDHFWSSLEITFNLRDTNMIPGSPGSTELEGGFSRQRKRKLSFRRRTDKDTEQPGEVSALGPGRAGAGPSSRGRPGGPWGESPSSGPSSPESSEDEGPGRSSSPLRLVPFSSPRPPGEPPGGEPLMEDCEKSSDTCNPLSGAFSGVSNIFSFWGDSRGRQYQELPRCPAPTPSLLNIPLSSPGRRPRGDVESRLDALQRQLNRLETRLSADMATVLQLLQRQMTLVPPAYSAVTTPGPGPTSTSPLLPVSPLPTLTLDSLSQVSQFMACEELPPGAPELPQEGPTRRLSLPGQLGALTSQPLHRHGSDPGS
row,SMILES,"hERG current change (%, negative = inhibition) at 10uM"
1,COC(=O)c1[nH]c2ccc(C)cc2c1NC(=O)CN1CCc2cc(OC)c(OC)cc2C1,-9.69%
2,Cn1ncc(Cl)c1C(=O)N1CCN(S(=O)(=O)c2ccc(Cl)s2)CC1,-33.7%
3,Cl.O=C(CN1CCN(C2CCCCC2)CC1)Nc1ccccc1N1CCCCC1,-66.2%
4,Cc1ccc(-c2c3c(=O)n(C)c(=O)n(C)c3cn2-c2ccccc2O)cc1,6.49%
5,O=c1c2c3nc4ccccc4nc3n(CC3CCCO3)c2ncn1CCc1ccccc1 (stereo not shown),-5.67%
6,CCOc1cc(CN2CCCC(N3CCc4ccccc4C3)C2)ccc1O (stereo not shown),-21.4%
7,O=C(CCN1CCN(c2ccc(Cl)cc2)CC1)Nc1nccs1,-13.3%
8,CC(=O)N1CCN(C23CC4CC(CC(C4)C2)C3)CC1,12.3%
9,CCOC(=O)[C@H]1[C@H]2COc3ccc(C)cc3[C@@H]2N2C(=O)CN(Cc3ccc(F)cc3)C(=O)[C@@]12C,-10.8%
10,Cc1ccc(OCC(=O)OC2CCCN(C)C2)cc1.Cl (stereo not shown),11.6%
11,CCOc1ccc2nc(N3CCC(C(=O)N4CCC5(CC4)OCCO5)CC3)sc2c1,-8.46%
12,CC1(C)Oc2ccc3ccc(=O)oc3c2/C(=C/Nc2ccc(O)cc2)C1=O,27.2%
13,CCCCOc1ccc(-c2nnn(CCC(=O)N3CCOCC3)n2)cc1,-45.4%
14,CC(=O)N(C(C)=O)n1c(/C=C/c2ccc([N+](=O)[O-])cc2)nc2ccccc2c1=O,-18.8%
15,COc1ccccc1C(=O)NC(=O)CSc1nnc(C)s1,17.5%
16,N#CC(c1ccccc1F)(c1ncc(C(F)(F)F)cc1Cl)N1CCOCC1 (stereo not shown),-4.31%
17,COC(=O)c1c(NC(=O)C(=O)N2CCOCC2)sc2c1CCC2,19.3%
18,CCN(CC)C(=O)N1c2ccccc2Sc2ccccc21,-2.13%
19,CC(C)n1c(NCc2cccs2)nc2ccccc21,-12.6%
20,CC(=Nc1ccccc1C)C1=C(O)CSC1=O,-1.32%
21,NNC(=O)c1ccc(COc2ccc3c(c2)CCC3)cc1,-32.6%
22,COc1ccc(NC(=O)c2csc(Cc3ccc(Cl)cc3)n2)cc1,19.9%

row,SMILES,"hERG current change (%, negative = inhibition) at 10uM"
1,CCC1CCCCN1C(=O)CSc1nc2c(c(=O)n(C)c(=O)n2C)n1C (stereo not shown),-15.4%
2,CN(c1ccc(C(=O)NCCSC(C)(C)C)cc1)S(=O)(=O)c1ccccc1,-25.2%
3,CCOc1ccc(NC(=O)CN2C(=O)S/C(=C/c3cccn3C)C2=O)cc1,13.6%
4,Cc1ccc(-n2nnnc2SCC(=O)c2c(N)n(C3CC3)c(=O)[nH]c2=O)cc1,10.8%
5,CCN(CC)S(=O)(=O)c1ccc(C(=O)N2CCN(C(=O)c3ccco3)CC2)cc1,-20.8%
6,COc1cc(C2C(C(=O)c3ccc(C)o3)=C(O)C(=O)N2CCc2ccccc2)ccc1O (stereo not shown),-1.97%
7,CCNC(=O)/C(=C/c1cccc([N+](=O)[O-])c1)NC(=O)c1ccc(C)cc1,-58.1%
8,Cc1ccc(S(=O)(=O)CCC(=O)OCC(=O)N2CCc3ccccc32)cc1,1.19%
9,CCn1c(SCC(=O)N/N=C/c2cc(OC)c(OC)c(OC)c2)nc2ccccc21,-7.72%
10,Cc1ccnc(NC(=O)C2CC(=O)N(Cc3ccccc3)C2)c1 (stereo not shown),4.61%
11,CCOC(=O)c1cn(-c2c(C)n(C)n(-c3ccccc3)c2=O)c2c(F)c(F)c(F)cc2c1=O,-2.68%
12,CCOc1ccccc1CN1CCN(C/C=C/c2ccc(OC)cc2)CC1CCO (stereo not shown),-65%
13,Fc1cccc(NCCc2c[nH]c3ccccc23)n1,11.3%
14,CCCn1c(Oc2ccccc2)nc2c1c(=O)n(C)c(=O)n2C,1.01%
15,COc1cccc(NC(=O)CN(C)C(=O)Cc2n[nH]c(=O)c3ccccc23)c1,7.63%
16,O=C1c2ccccc2C(O)(Cc2ccccc2)N1C1CCCCC1 (stereo not shown),1.8%
17,COc1ccccc1NC(=O)NC1(C(=O)N2CCOCC2)CCCCC1,16.9%
18,CCOC(=O)c1ccccc1NCN1C(=O)CSC1=O,17.3%
19,CCCCN(C)CCCNC(=O)Cn1c(=O)sc2ccccc21,-11.5%
20,COc1cc2c3nnc(-c4ccc(F)cc4)c-3cn(Cc3cccc(F)c3)c2cc1OC,29.7%
21,Cc1ccc(S(=O)(=O)CCc2nnc(NC(=O)COc3cccc(C)c3)s2)cc1,7.2%
22,CCOC(=O)c1c(NC(=O)COC(=O)CNC(=O)c2ccco2)sc(C(C)=O)c1C,-7.3%

row,SMILES,"hERG current change (%, negative = inhibition) at 10uM"
1,CCC(C)NS(=O)(=O)c1ccc(OCC(=O)NCC2CCCO2)cc1 (stereo not shown),-9.1%
2,CCCn1c(SCC(=O)Nc2ccc(Cl)cn2)nnc1C1CC1,-5.64%
3,O=S(=O)(NCCCc1ccccc1)c1ccc(Cl)cc1,-34.4%
4,CCCN1C(=O)c2cccc3c(N4CCCCC4)ccc(c23)C1=O,15.3%
5,CCN1CCN(c2nc(Nc3cccc(F)c3)nc(N)c2[N+](=O)[O-])CC1,-62.6%
6,O=c1oc(/C=C/c2ccccc2)nc2sc3c(c12)CCC3,6.49%
7,COC(=O)C1=CN(Cc2ccc(OC)c(OC)c2)C=C(C(=O)OC)C1c1cccc(O)c1,7.24%
8,COc1ccc(N2C(=O)CC(N3CCCC4CCCCC43)C2=O)cc1 (stereo not shown),1.28%
9,O=C(COc1ccccc1)NNC(=O)c1cccs1,21.3%
10,O=C(NCc1ccccn1)Nc1cccc(Cl)c1,-10.6%
11,CCC(C)NC(=O)c1ccc(CNS(=O)(=O)c2ccc3c(c2)C(C)(C)C(=O)N3C)cc1 (stereo not shown),13.1%
12,O=C(CSc1nnnn1C1CC1)N1CCN(Cc2ccccc2F)CC1,3.94%
13,CN(C(=O)CN1C(=O)/C(=C/c2ccc(F)cc2)SC1=S)C1CCS(=O)(=O)C1 (stereo not shown),-5.92%
14,COc1ccc(N2CCN(S(=O)(=O)c3ccc4c(c3)NC(=O)CS4)CC2)cc1,16.8%
15,CCOC(CNC(=O)C(=O)Nc1cc2c3c(c1)CC(=O)N3CCC2)OCC,5.22%
16,COc1ccc(OC)c(NC(=O)CSc2ccccc2)c1,-4.87%
17,COc1ccc(CCN2C(=O)CC(Sc3ncccc3C(=O)O)C2=O)cc1OC (stereo not shown),10.2%
18,N#Cc1nc(COc2ccc(Cl)cc2)oc1NCc1ccc2c(c1)OCO2,10.8%
19,O=C(Nc1nc2ccccc2[nH]1)C1CCCO1 (stereo not shown),6.66%
20,CCOc1ccc(NCc2cccn2-c2nnc(N3CCC(C(=O)NCCCN4CCCCC4C)CC3)s2)cc1 (stereo not shown),-53.8%
21,Fc1ccc2[nH]c3c(NCCN4CCOCC4)ncnc3c2c1,-16.8%
22,CC(NC(=O)COc1ccc(Br)cc1)C(=O)O (stereo not shown),5.37%

row,SMILES,"hERG current change (%, negative = inhibition) at 10uM"
1,O=C(CSc1nccn1-c1ccc(F)cc1)Nc1ccc2c(c1)OCO2,-8.64%
2,CC(C)Nc1nnc(SCC(=O)N2CCN(C(=O)c3ccco3)CC2)s1,-2.72%
3,CC(C)(C)c1cc(Cl)ccc1OCCOCCN1CCCC1.O=C(O)C(=O)O,-45.8%
4,Cc1cc(F)ccc1NC(=O)c1cnccn1,13%
5,COc1ccc(C2CC(c3cccs3)=NN2C(=O)CCl)cc1OC (stereo not shown),-13.5%
6,O=c1cc(N2CCCCCC2)[nH]c(=O)n1-c1ccccc1Cl,20.2%
7,O=C(NC(=S)Nc1ccc(CN2CCOCC2)cc1)c1ccc2c(c1)OCCO2,-13.9%
8,Oc1ccc(/C=N/Nc2ccc(C(F)(F)F)cn2)cc1,-12.4%
9,CC1(C)Cc2c(cnn2-c2ccccc2)C(NC(=O)c2ccc[n+]([O-])c2)C1 (stereo not shown),2.3%
10,CCN(CC)S(=O)(=O)c1ccc(C(=O)NCc2n[nH]c(=S)n2-c2ccc(Cl)c(Cl)c2)cc1,10.4%
11,N#Cc1cc(-c2ccccc2)cnc1Sc1ccccc1,-0.515%
12,CCOC(=O)C1(Cc2ccccc2C)CCCN(Cc2ccc(NC(C)=O)cc2)C1 (stereo not shown),11.5%
13,CCCNC(=O)c1onc(CSc2ccc(Cl)cc2)c1C(=O)NCCC(C)C,-1.16%
14,CCNC(=O)NC1c2ccccc2CSc2ccccc21.O (stereo not shown),12.7%
15,O=C(Nc1cccnc1)c1cnc2ccccc2n1,12.1%
16,C=CCn1c(SCC(=O)NCC(=O)OCC)nnc1-c1cccc(OC)c1,14%
17,CC(C)(C)NCc1cc(Br)ccc1OCc1cccs1.Cl,-52.5%
18,Cc1ccc(Oc2ncccc2COC(=O)Nc2ccccc2C)cc1,25.3%
19,CC(=O)c1ccc(NC(=O)C(Cc2ccccc2)n2cccc2)cc1 (stereo not shown),1.67%
20,Cc1nn2c(-c3cccc(NC(=O)CN4CCOCC4)c3)nnc2c2ccccc12,-22.6%
21,COC(=O)C1=C(c2ccc(F)cc2OCc2ccccc2)C[C@@H]2CC[C@H]1N2C(=O)NCc1ccccc1Cl,12.3%
22,C/C(=N/OCC(=O)Nc1ccc(C)cc1C)c1cccs1,-11.7%
